Patent US20250019376A1, “CHROMANE AMIDINE MONOBACTAM ANTIBIOTICS” (priority 2021, published 2025)
The name of at least one read-out is uncertain.

Tests used:
Conditions in all cases: lowest concentration inhibiting 95% of growth (OD600); with BLi relebactam 4 μg/mL; 22 hours, 35±2° C.
[1] = tested on: Acinetobacter baumannii expressing TEM-1, AmpC, and Oxa-24/40 (CL6188); type: cell-based
[2] = tested on: Escherichia co/i expressing NDM-1 (CLB30016); experiment: Growth inhibitory concentration (OD600), E. coli CLB30016; type: cell-based, Escherichia coli
[3] = tested on: Klebsiella pneumoniae expressing KPC-1 (CL6569); experiment: Growth inhibitory concentration (OD600), K. pneumoniae CL6569; type: cell-based
[4] = tested on: Pseudomonas aeruginosa expressing AmpC (CL5701); experiment: Growth inhibitory concentration (OD600), P. aeruginosa CL5701; type: cell-based

| Structure (SMILES) | AB_CL6188 MITC95 [1] [µM] | EC_CLB30016 MITC95 [2] [µM] | KP_CL6569 MITC95 [3] [µM] | PA_CL5701 MITC95 [4] [µM] |
| --- | --- | --- | --- | --- |
| CC1(C)[C@H](NC(=O)/C(=N\O[C@](C)(C(=O)O)[C@H]2CCc3cc(C(=N)NC4C[C@@H]5CNC[C@H]45)ccc3O2)c2csc(N)n2)C(=O)N1OS(=O)(=O)O (stereo partly drawn) [Compound 16, (2S)-2-((2R)-6-(N-((1S,5R)-3-azabicyclo[3.2.0]heptan-6-yl)carbamimidoyl)-chroman-2-yl)-2-((((Z)-1-(2-aminothiazol-4-yl)-2-(((S)-2,2-dimethyl-4-oxo-1-(sulfooxy)azetidin-3-yl)amino)-2-oxoethylidene)amino)oxy)propanoic acid] | 6.25 | 3.125 | 0.7813 | 3.125 |
| CC1(C)[C@H](NC(=O)/C(=N\O[C@](C)(C(=O)O)[C@H]2CCc3cc(C(=N)NC4CCCC(N)CC4)ccc3O2)c2csc(N)n2)C(=O)N1OS(=O)(=O)O (single isomer, unassigned) [Compound 105] | 3.125 | 6.25 | 0.3906 | 1.563 |
| CC1(C)[C@H](NC(=O)/C(=N\O[C@](C)(C(=O)O)[C@H]2CCc3cc(C(=N)NC45CC(CN)(C4)C5)ccc3O2)c2csc(N)n2)C(=O)N1OS(=O)(=O)O [Compound 9, (S)-2-((R)-6-(N-(3-(aminomethyl)bicyclo[1.1.1]pentan-1-yl)carbamimidoyl)-chroman-2-yl)-2-((((Z)-1-(2-aminothiazol-4-yl)-2-(((S)-2,2-dimethyl-4-oxo-1-(sulfooxy)azetidin-3-yl)amino)-2-oxoethylidene)amino)oxy)propanoic acid] | 6.25 | 3.125 | 0.1953 | 1.563 |
| CC1(C)[C@H](NC(=O)/C(=N\O[C@](C)(C(=O)O)[C@H]2CCc3cc(C(=N)N[C@]4(C)C[C@@H](N)C4)ccc3O2)c2csc(N)n2)C(=O)N1OS(=O)(=O)O [Compound 84, (S)-2-((R)-6-(N-((1r,3R)-3-amino-1-methylcyclobutyl)carbamimidoyl)chroman-2-yl)-2-((((Z)-1-(2-aminothiazol-4-yl)-2-(((S)-2,2-dimethyl-4-oxo-1-(sulfooxy)azetidin-3-yl)amino)-2-oxoethylidene)amino)oxy)propanoic acid] | 6.25 | 6.25 | 0.7813 | 1.563 |
| CC1(C)[C@H](NC(=O)/C(=N\O[C@](C)(C(=O)O)[C@H]2CCc3cc(C(=N)N[C@H]4C[C@](N)(CO)C4)ccc3O2)c2csc(N)n2)C(=O)N1OS(=O)(=O)O [Compound 89, (S)-2-((R)-6-(N-((1s,3S)-3-amino-3-(hydroxymethyl)cyclobutyl)carbamimidoyl)chroman-2-yl)-2-((((Z)-1-(2-aminothiazol-4-yl)-2-(((S)-2,2-dimethyl-4-oxo-1-(sulfooxy)azetidin-3-yl)amino)-2-oxoethylidene)amino)oxy)propanoic acid] | 9.375 | 6.25 | 0.3906 | 1.563 |
| CC1(C)[C@H](NC(=O)/C(=N\O[C@](C)(C(=O)O)[C@H]2CCc3cc(C(=N)N[C@H]4C[C@](O)(CN)C4)ccc3O2)c2csc(N)n2)C(=O)N1OS(=O)(=O)O [Compound 80, (S)-2-((R)-6-(N-((1s,3S)-3-(aminomethyl)-3-hydroxycyclobutyl)carbamimidoyl)chroman-2-yl)-2-((((Z)-1-(2-aminothiazol-4-yl)-2-(((S)-2,2-dimethyl-4-oxo-1-(sulfooxy)azetidin-3-yl)amino)-2-oxoethylidene)amino)oxy)propanoic acid] | 3.125 | 6.25 | 0.3906 | 1.563 |
| COC[C@]1(N)CC[C@@H](NC(=N)c2ccc3c(c2)CC[C@H]([C@](C)(O/N=C(\C(=O)N[C@@H]2C(=O)N(OS(=O)(=O)O)C2(C)C)c2csc(N)n2)C(=O)O)O3)CC1 [Compound 128, (S)-2-((R)-6-(N-((1s,4S)-4-amino-4-(methoxymethyl)cyclohexyl)carbamimidoyl)chroman-2-yl)-2-((((Z)-1-(2-aminothiazol-4-yl)-2-(((S)-2,2-dimethyl-4-oxo-1-(sulfooxy)azetidin-3-yl)amino)-2-oxoethylidene)amino)oxy)propanoic acid] | 6.25 | 12.5 | 0.3906 | 1.563 |
| CC1(C)[C@H](NC(=O)/C(=N\O[C@](C)(C(=O)O)[C@H]2CCc3cc(C(=N)N[C@H]4CC[C@@](O)(CN)CC4)ccc3O2)c2csc(N)n2)C(=O)N1OS(=O)(=O)O [Compound 60, (S)-2-((R)-6-(N-((1r,4R)-4-(aminomethyl)-4-hydroxycyclohexyl)carbamimidoyl)chroman-2-yl)-2-((((Z)-1-(2-aminothiazol-4-yl)-2-(((S)-2,2-dimethyl-4-oxo-1-(sulfooxy)azetidin-3-yl)amino)-2-oxoethylidene)amino)oxy)propanoic acid] | 3.125 | 6.25 | 0.7813 | 1.563 |
| COCc1cc2c(cc1C(=N)N[C@H]1C[C@@H](N)C1)CC[C@H]([C@](C)(O/N=C(\C(=O)N[C@@H]1C(=O)N(OS(=O)(=O)O)C1(C)C)c1csc(N)n1)C(=O)O)O2 [Compound 125, (S)-2-((R)-6-(N-((1s,3S)-3-aminocyclobutyl)carbamimidoyl)-7-(methoxymethyl)chroman-2-yl)-2-((((Z)-1-(2-aminothiazol-4-yl)-2-(((S)-2,2-dimethyl-4-oxo-1-(sulfooxy)azetidin-3-yl)amino)-2-oxoethylidene)amino)oxy)propanoic acid] | 12.5 | 25 | 1.563 | 1.563 |
| CN[C@H]1CC[C@H](NC(=N)c2ccc3c(c2)CC[C@H]([C@](C)(O/N=C(\C(=O)N[C@@H]2C(=O)N(OS(=O)(=O)O)C2(C)C)c2csc(N)n2)C(=O)O)O3)CC1 [Compound 34, (S)-2-((((Z)-1-(2-aminothiazol-4-yl)-2-(((S)-2,2-dimethyl-4-oxo-1-(sulfooxy)azetidin-3-yl)amino)-2-oxoethylidene)amino)oxy)-2-((R)-6-(N-((1r,4R)-4-(methylamino)cyclohexyl)carbamimidoyl)chroman-2-yl)propanoic acid] | 3.125 | 6.25 | 0.3906 | 1.563 |
| CC1(C)[C@H](NC(=O)/C(=N\O[C@](C)(C(=O)O)[C@H]2CCc3cc(C(=N)NC4CCC(CN)CC4)ccc3O2)c2csc(N)n2)C(=O)N1OS(=O)(=O)O (single isomer, unassigned) [Compound 41] | 6.25 | 6.25 | 0.3906 | 1.563 |
| CC1(C)[C@H](NC(=O)/C(=N\O[C@](C)(C(=O)O)[C@H]2CCc3cc(C(=N)N[C@@H]4CC[C@H](N)C4)ccc3O2)c2csc(N)n2)C(=O)N1OS(=O)(=O)O (single isomer, unassigned) [Compound 45] | 6.25 | 6.25 | 0.3906 | 1.563 |
| CC1(C)[C@H](NC(=O)/C(=N\O[C@](C)(C(=O)O)[C@H]2CCc3cc(C(=N)N[C@H]4CC5(C[C@@H](CN)C5)C4)ccc3O2)c2csc(N)n2)C(=O)N1OS(=O)(=O)O (single isomer, unassigned) [Compound 121] | 6.25 | 3.125 | 0.3906 | 1.563 |
| CC1(C)[C@H](NC(=O)/C(=N\O[C@](C)(C(=O)O)[C@H]2CCc3cc(C(=N)NC4CC5(C4)C[C@H]5N)ccc3O2)c2csc(N)n2)C(=O)N1OS(=O)(=O)O (single isomer, unassigned) [Compound 123] | 6.25 | 3.125 | 0.3906 | 1.563 |
| CC1(C)[C@H](NC(=O)/C(=N\O[C@](C)(C(=O)O)[C@H]2CCc3cc(C(=N)N[C@H]4C[C@H](CN)C4)ccc3O2)c2csc(N)n2)C(=O)N1OS(=O)(=O)O [Compound 113, (S)-2-((R)-6-(N-((1r,3R)-3-(aminomethyl)cyclobutyl)carbamimidoyl)chroman-2-yl)-2-((((Z)-1-(2-aminothiazol-4-yl)-2-(((S)-2,2-dimethyl-4-oxo-1-(sulfooxy)azetidin-3-yl)amino)-2-oxoethylidene)amino)oxy)propanoic acid] | 3.125 | 3.125 | 0.3906 | 1.563 |
| CC1(C)[C@H](NC(=O)/C(=N\O[C@](C)(C(=O)O)[C@H]2CCc3cc(C(=N)N[C@H]4C[C@H](N)C4)ccc3O2)c2csc(N)n2)C(=O)N1OS(=O)(=O)O [Compound 8, (S)-2-((R)-6-(N-((1r,3R)-3-aminocyclobutyl)carbamimidoyl)chroman-2-yl)-2-((((Z)-1-(2-aminothiazol-4-yl)-2-(((S)-2,2-dimethyl-4-oxo-1-(sulfooxy)azetidin-3-yl)-amino)-2-oxoethylidene)amino)oxy)propanoic acid] | 3.125 | 3.125 | 0.293 | 1.172 |
